Test results taken from the supplement of paper PMC8728848.
The other results are listed elsewhere or left out.

Assays:
Assay in all cases: glycan array binding signal (z-score within array); higher = stronger binding
Conditions in all cases: glycan notation: IUPAC condensed, linker removed
[1] = biological target: Neu5Ac(a2-3)Gal(b1-3)GlcNAc(b1-3)Gal(b1-3)GlcNAc
In short: (§1)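 Glycan array data came from 3228 arrays in the Consortium for Functional Glycomics database, and only arrays with an available protein sequence were kept. Glycan names were put into IUPAC-condensed notation, and columns mapping to the same glycan were averaged. The binding signal is a within-array Z-score, averaged across arrays of one protein sequence run at different concentrations or buffers and across linkers. A negative Z-score can be read as non-binding.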

[2] = biological target: Neu5Ac(a2-3)Gal(b1-3)GlcNAc6S
In short: as §1

[3] = biological target: Neu5Ac(a2-3)Gal(b1-3)[Fuc(a1-4)]GlcNAc
In short: as §1

[4] = biological target: Neu5Ac(a2-3)Gal(b1-3)[Fuc(a1-4)]GlcNAc(b1-3)Gal(b1-4)[Fuc(a1-3)]GlcNAc
In short: as §1

[5] = biological target: Neu5Ac(a2-3)Gal(b1-3)[Neu5Ac(a2-3)Gal(b1-4)]GlcNAc
In short: as §1

[6] = biological target: Neu5Ac(a2-3)Gal(b1-3)[Neu5Ac(a2-6)]GalNAc
In short: as §1

[7] = biological target: Neu5Ac(a2-3)Gal(b1-4)Glc
In short: as §1

[8] = biological target: Neu5Ac(a2-3)Gal(b1-4)GlcNAc
In short: as §1

[9] = biological target: Neu5Ac(a2-3)Gal(b1-4)GlcNAc(b1-2)Man(a1-3)[GlcNAc(b1-2)Man(b1-4)GlcNAc(b1-2)Man(a1-6)]Man(b1-4)GlcNAc(b1-4)GlcNAc
In short: as §1

[10] = biological target: Neu5Ac(a2-3)Gal(b1-4)GlcNAc(b1-2)Man(a1-3)[Neu5Ac(a2-3)Gal(b1-4)GlcNAc(b1-2)Man(a1-6)]Man(b1-4)GlcNAc(b1-4)GlcNAc
In short: as §1

[11] = biological target: Neu5Ac(a2-3)Gal(b1-4)GlcNAc(b1-2)Man(a1-3)[Neu5Ac(a2-6)Gal(b1-4)GlcNAc(b1-2)Man(a1-6)]Man(b1-4)GlcNAc(b1-4)GlcNAc
In short: as §1

[12] = biological target: Neu5Ac(a2-3)Gal(b1-4)GlcNAc(b1-3)Gal(b1-3)GlcNAc
In short: as §1

[13] = biological target: Neu5Ac(a2-3)Gal(b1-4)GlcNAc(b1-3)Gal(b1-4)GlcNAc
In short: as §1

[14] = biological target: Neu5Ac(a2-3)Gal(b1-4)GlcNAc(b1-3)Gal(b1-4)GlcNAc(b1-3)Gal(b1-4)GlcNAc
In short: as §1

[15] = biological target: Neu5Ac(a2-3)Gal(b1-4)GlcNAc(b1-3)Gal(b1-4)[Fuc(a1-3)]GlcNAc
In short: as §1

[16] = biological target: Neu5Ac(a2-3)Gal(b1-4)GlcNAc(b1-6)[Gal(b1-3)]GalNAc
In short: as §1

[17] = biological target: Neu5Ac(a2-3)Gal(b1-4)GlcNAc(b1-6)[Neu5Ac(a2-3)Gal(b1-3)]GalNAc
In short: as §1

[18] = biological target: Neu5Ac(a2-3)Gal(b1-4)GlcNAc6S
In short: as §1

[19] = biological target: Neu5Ac(a2-3)Gal(b1-4)[Fuc(a1-3)]GlcNAc
In short: as §1

[20] = biological target: Neu5Ac(a2-3)Gal(b1-4)[Fuc(a1-3)]GlcNAc(b1-3)Gal
In short: as §1

[21] = biological target: Neu5Ac(a2-3)Gal(b1-4)[Fuc(a1-3)]GlcNAc(b1-3)Gal(b1-4)GlcNAc
In short: as §1

[22] = biological target: Neu5Ac(a2-3)Gal(b1-4)[Fuc(a1-3)]GlcNAc(b1-3)Gal(b1-4)[Fuc(a1-3)]GlcNAc(b1-3)Gal(b1-4)[Fuc(a1-3)]GlcNAc
In short: as §1

[23] = biological target: Neu5Ac(a2-3)Gal(b1-4)[Fuc(a1-3)]GlcNAc(b1-6)[Gal(b1-3)]GalNAc
In short: as §1

[24] = biological target: Neu5Ac(a2-3)Gal(b1-4)[Fuc(a1-3)]GlcNAc6S
In short: as §1

[25] = biological target: Neu5Ac(a2-3)Gal6S(b1-4)GlcNAc
In short: as §1

[26] = biological target: Neu5Ac(a2-3)Gal6S(b1-4)[Fuc(a1-3)]GlcNAc
In short: as §1

[27] = biological target: Neu5Ac(a2-3)GalNAc
In short: as §1

[28] = biological target: Neu5Ac(a2-3)GalNAc(b1-4)GlcNAc
In short: as §1

[29] = biological target: Neu5Ac(a2-3)[GalNAc(b1-4)]Gal(b1-4)Glc
In short: as §1

[30] = biological target: Neu5Ac(a2-3)[GalNAc(b1-4)]Gal(b1-4)GlcNAc
In short: as §1

[31] = biological target: Neu5Ac(a2-3)[Neu5Ac(a2-6)]GalNAc
In short: as §1

[32] = biological target: Neu5Ac(a2-6)Gal
In short: as §1

[33] = biological target: Neu5Ac(a2-6)Gal(b1-4)Glc
In short: as §1

[34] = biological target: Neu5Ac(a2-6)Gal(b1-4)GlcNAc
In short: as §1

[35] = biological target: Neu5Ac(a2-6)Gal(b1-4)GlcNAc(b1-2)Man(a1-3)[Gal(b1-4)GlcNAc(b1-2)Man(a1-6)]Man(b1-4)GlcNAc(b1-4)GlcNAc
In short: as §1

[36] = biological target: Neu5Ac(a2-6)Gal(b1-4)GlcNAc(b1-2)Man(a1-3)[GlcNAc(b1-2)Man(a1-6)]Man(b1-4)GlcNAc(b1-4)GlcNAc
In short: as §1

[37] = biological target: Neu5Ac(a2-6)Gal(b1-4)GlcNAc(b1-2)Man(a1-3)[GlcNAc(b1-2)Man(b1-4)GlcNAc(b1-2)Man(a1-6)]Man(b1-4)GlcNAc(b1-4)GlcNAc
In short: as §1

[38] = biological target: Neu5Ac(a2-6)Gal(b1-4)GlcNAc(b1-2)Man(a1-3)[Neu5Ac(a2-6)Gal(b1-4)GlcNAc(b1-2)Man(a1-6)]Man(b1-4)GlcNAc(b1-4)GlcNAc
In short: as §1

[39] = biological target: Neu5Ac(a2-6)Gal(b1-4)GlcNAc(b1-2)Man(a1-6)[Gal(b1-4)GlcNAc(b1-2)Man(a1-3)]Man(b1-4)GlcNAc(b1-4)GlcNAc
In short: as §1

[40] = biological target: Neu5Ac(a2-6)Gal(b1-4)GlcNAc(b1-2)Man(a1-6)[GlcNAc(b1-2)Man(a1-3)]Man(b1-4)GlcNAc(b1-4)GlcNAc
In short: as §1

[41] = biological target: Neu5Ac(a2-6)Gal(b1-4)GlcNAc(b1-3)Gal(b1-4)GlcNAc
In short: as §1

[42] = biological target: Neu5Ac(a2-6)Gal(b1-4)GlcNAc(b1-3)Gal(b1-4)[Fuc(a1-3)]GlcNAc(b1-3)Gal(b1-4)[Fuc(a1-3)]GlcNAc
In short: as §1

[43] = biological target: Neu5Ac(a2-6)Gal(b1-4)GlcNAc6S
In short: as §1

[44] = biological target: Neu5Ac(a2-6)GalNAc
In short: as §1

[45] = biological target: Neu5Ac(a2-6)GalNAc(b1-4)GlcNAc
In short: as §1

[46] = biological target: Neu5Ac(a2-8)Neu5Ac
In short: as §1

[47] = biological target: Neu5Ac(a2-8)Neu5Ac(a2-3)Gal(b1-4)Glc
In short: as §1

[48] = biological target: Neu5Ac(a2-8)Neu5Ac(a2-3)[GalNAc(b1-4)]Gal(b1-4)Glc
In short: as §1

[49] = biological target: Neu5Ac(a2-8)Neu5Ac(a2-8)Neu5Ac
In short: as §1

[50] = biological target: Neu5Ac(a2-8)Neu5Ac(a2-8)Neu5Ac(a2-3)Gal(b1-4)Glc
In short: as §1

[51] = biological target: Neu5Ac(a2-8)Neu5Ac(a2-8)Neu5Ac(a2-3)[GalNAc(b1-4)]Gal(b1-4)Glc
In short: as §1

[52] = biological target: Neu5Ac(a2-8)Neu5Ac(a2-8)Neu5Ac(a2-8)Neu5Ac(a2-3)[GalNAc(b1-4)]Gal(b1-4)Glc
In short: as §1

[53] = biological target: Neu5Ac(b1-6)GalNAc
In short: as §1

[54] = biological target: Neu5Ac(b2-6)Gal(b1-4)GlcNAc
In short: as §1

[55] = biological target: Neu5Ac(b2-6)GalNAc
In short: as §1

[56] = biological target: Neu5Ac9Ac(a2-6)Gal(b1-4)GlcNAc
In short: as §1

[57] = biological target: Neu5Gc(a2-3)Gal(b1-3)GlcNAc
In short: as §1

[58] = biological target: Neu5Gc(a2-3)Gal(b1-3)[Fuc(a1-4)]GlcNAc
In short: as §1

[59] = biological target: Neu5Gc(a2-3)Gal(b1-4)Glc
In short: as §1

[60] = biological target: Neu5Gc(a2-3)Gal(b1-4)GlcNAc
In short: as §1

[61] = biological target: Neu5Gc(a2-3)Gal(b1-4)[Fuc(a1-3)]GlcNAc
In short: as §1

[62] = biological target: Neu5Gc(a2-6)Gal(b1-4)GlcNAc
In short: as §1

[63] = biological target: Neu5Gc(a2-6)GalNAc
In short: as §1

[64] = biological target: Neu5Gc(b2-6)Gal(b1-4)GlcNAc
In short: as §1

B1: L-Selectin (Mus musculus), P18337 (protein)
chain: MVFPWRCEGTYWGSRNILKLWVWTLLCCDFLIHHGTHCWTYHYSEKPMNWENARKFCKQNYTDLVAIQNKREIEYLENTLPKSPYYYWIGIRKIGKMWTWVGTNKTLTKEAENWGAGEPNNKKSKEDCVEIYIKRERDSGKWNDDACHKRKAALCYTASCQPGSCNGRGECVETINNHTCICDAGYYGPQCQYVVQCEPLEAPELGTMDCIHPLGNFSFQSKCAFNCSEGRELLGTAETQCGASGNWSSPEPICQVVQCEPLEAPELGTMDCIHPLGNFSFQSKCAFNCSEGRELLGTAETQCGASGNWSSPEPICQETNRSFSKIKEGDYNPLFIPVAVMVTAFSGLAFLIWLARRLKKGKKSQERMDDPY
glycan array binding signal (z-score) [1]: -0.046
glycan array binding signal (z-score) [2]: -0.124
glycan array binding signal (z-score) [3]: 1.44
glycan array binding signal (z-score) [4]: 0.559
glycan array binding signal (z-score) [5]: -0.237
glycan array binding signal (z-score) [6]: -0.133
glycan array binding signal (z-score) [7]: 0.158
glycan array binding signal (z-score) [8]: 0.04
glycan array binding signal (z-score) [9]: -0.498
glycan array binding signal (z-score) [10]: -0.437
glycan array binding signal (z-score) [11]: -0.36
glycan array binding signal (z-score) [12]: -0.041
glycan array binding signal (z-score) [13]: -0.283
glycan array binding signal (z-score) [14]: 0.041
glycan array binding signal (z-score) [15]: -0.118
glycan array binding signal (z-score) [16]: -0.643
glycan array binding signal (z-score) [17]: -0.367
glycan array binding signal (z-score) [18]: -0.02
glycan array binding signal (z-score) [19]: 1.21
glycan array binding signal (z-score) [20]: 0.013
glycan array binding signal (z-score) [21]: -0.036
glycan array binding signal (z-score) [22]: -0.175
glycan array binding signal (z-score) [23]: -0.147
glycan array binding signal (z-score) [24]: 8.82
glycan array binding signal (z-score) [25]: -0.165
glycan array binding signal (z-score) [26]: 0.001
glycan array binding signal (z-score) [27]: -0.33
glycan array binding signal (z-score) [28]: -0.335
glycan array binding signal (z-score) [29]: -0.195
glycan array binding signal (z-score) [30]: -0.282
glycan array binding signal (z-score) [31]: 0.295
glycan array binding signal (z-score) [32]: -0.314
glycan array binding signal (z-score) [33]: -0.214
glycan array binding signal (z-score) [34]: -0.213
glycan array binding signal (z-score) [35]: -0.056
glycan array binding signal (z-score) [36]: 0.31
glycan array binding signal (z-score) [37]: -0.454
glycan array binding signal (z-score) [38]: -0.115
glycan array binding signal (z-score) [39]: -0.363
glycan array binding signal (z-score) [40]: -0.236
glycan array binding signal (z-score) [41]: -0.289
glycan array binding signal (z-score) [42]: -0.252
glycan array binding signal (z-score) [43]: 0.174
glycan array binding signal (z-score) [44]: -0.12
glycan array binding signal (z-score) [45]: -0.452
glycan array binding signal (z-score) [46]: -0.017
glycan array binding signal (z-score) [47]: -0.335
glycan array binding signal (z-score) [48]: -0.36
glycan array binding signal (z-score) [49]: -0.493
glycan array binding signal (z-score) [50]: -0.536
glycan array binding signal (z-score) [51]: -0.235
glycan array binding signal (z-score) [52]: -0.554
glycan array binding signal (z-score) [53]: -0.43
glycan array binding signal (z-score) [54]: -0.348
glycan array binding signal (z-score) [55]: -0.495
glycan array binding signal (z-score) [56]: -0.195
glycan array binding signal (z-score) [57]: -0.325
glycan array binding signal (z-score) [58]: 2.91
glycan array binding signal (z-score) [59]: -0.088
glycan array binding signal (z-score) [60]: 0.201
glycan array binding signal (z-score) [61]: 0.549
glycan array binding signal (z-score) [62]: -0.316
glycan array binding signal (z-score) [63]: -0.383
glycan array binding signal (z-score) [64]: -0.276
